Here are results for one molecule from US20170258835A1 (University of Pennsylvania, published 2017).

The target of the assay is T1, PD1-Z CLEAR.
T1 construct: PD1 based chimeric receptor on RNA electroporated T cells; also called PD1 CLEAR (zeta alone)
The assay is described as follows: flow cytometry, T cells 18 h after co-electroporation of PD1-Z RNA and bi-specific antibody RNA, stained with anti-mouse IgG Fab PE and anti-PD1 APC; same quadrant in the controls: EP16 PD1-Z alone 2.42, EP20 No RNA 0.086. Background: A flow cytometer gives signals particle by particle.

T1 sequence (chain, as listed by the source limits assumed): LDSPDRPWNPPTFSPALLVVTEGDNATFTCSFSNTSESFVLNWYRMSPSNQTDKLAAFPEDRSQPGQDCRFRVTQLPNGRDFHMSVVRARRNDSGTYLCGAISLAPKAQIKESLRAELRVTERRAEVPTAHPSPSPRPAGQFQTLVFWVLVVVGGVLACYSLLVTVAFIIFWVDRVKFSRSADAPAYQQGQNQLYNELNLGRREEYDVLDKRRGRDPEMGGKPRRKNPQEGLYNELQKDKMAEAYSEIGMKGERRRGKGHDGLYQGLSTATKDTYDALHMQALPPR

B1: 4A11.4D5 bi-specific antibody (bispecific antibody)
chain: DIQMTQSPSSLSASVGDRVSITCRASQGISSWLAWYQQKPEKAPKSLIYAASNLRSGVPSRFSGSGSGTDFTLTISSLQPEDFATYYCQQYYSYPRTFGQGTKVEIKGGGGSGGGGSGGGGSQLQLQESGPGLVKPSETLSLTCTVSGGSLSRSSFFWGWIRQPPGKGLEWIGSIYYSGSTYYNPSLKSRVTISVDTSKNQFSLKLSSVTAADTAVYYCVRDYDILTGDEDYWGQGTLVTVSSGGGGS[skipping about 100 residues]RTGSTSGSGKPGSGEGS[skipping about 120 residues]
notes: co-electroporated with PD1-Z
On to B1, for which the “percent of cells PD1+ mIgG Fab+ (upper right quadrant)” value amounted to 29.2.
